Among all 310,000 compounds or so, about 14,000 (4.5%) showed an effect of 50% or more. The effect is printed as a negative number. This is one part of the list.
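Note: peak tail current of the secondary pulse compared with the same well before compound.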

The target of this assay is human ether-à-go-go-related gene (hERG) potassium channel (human, UniProt Q12809). The assay can be described thus: primary screen, population patch clamp on CHO cells stably expressing hERG.
Sequence of human ether-à-go-go-related gene (hERG) potassium channel (Q12809 whole entry, looked up): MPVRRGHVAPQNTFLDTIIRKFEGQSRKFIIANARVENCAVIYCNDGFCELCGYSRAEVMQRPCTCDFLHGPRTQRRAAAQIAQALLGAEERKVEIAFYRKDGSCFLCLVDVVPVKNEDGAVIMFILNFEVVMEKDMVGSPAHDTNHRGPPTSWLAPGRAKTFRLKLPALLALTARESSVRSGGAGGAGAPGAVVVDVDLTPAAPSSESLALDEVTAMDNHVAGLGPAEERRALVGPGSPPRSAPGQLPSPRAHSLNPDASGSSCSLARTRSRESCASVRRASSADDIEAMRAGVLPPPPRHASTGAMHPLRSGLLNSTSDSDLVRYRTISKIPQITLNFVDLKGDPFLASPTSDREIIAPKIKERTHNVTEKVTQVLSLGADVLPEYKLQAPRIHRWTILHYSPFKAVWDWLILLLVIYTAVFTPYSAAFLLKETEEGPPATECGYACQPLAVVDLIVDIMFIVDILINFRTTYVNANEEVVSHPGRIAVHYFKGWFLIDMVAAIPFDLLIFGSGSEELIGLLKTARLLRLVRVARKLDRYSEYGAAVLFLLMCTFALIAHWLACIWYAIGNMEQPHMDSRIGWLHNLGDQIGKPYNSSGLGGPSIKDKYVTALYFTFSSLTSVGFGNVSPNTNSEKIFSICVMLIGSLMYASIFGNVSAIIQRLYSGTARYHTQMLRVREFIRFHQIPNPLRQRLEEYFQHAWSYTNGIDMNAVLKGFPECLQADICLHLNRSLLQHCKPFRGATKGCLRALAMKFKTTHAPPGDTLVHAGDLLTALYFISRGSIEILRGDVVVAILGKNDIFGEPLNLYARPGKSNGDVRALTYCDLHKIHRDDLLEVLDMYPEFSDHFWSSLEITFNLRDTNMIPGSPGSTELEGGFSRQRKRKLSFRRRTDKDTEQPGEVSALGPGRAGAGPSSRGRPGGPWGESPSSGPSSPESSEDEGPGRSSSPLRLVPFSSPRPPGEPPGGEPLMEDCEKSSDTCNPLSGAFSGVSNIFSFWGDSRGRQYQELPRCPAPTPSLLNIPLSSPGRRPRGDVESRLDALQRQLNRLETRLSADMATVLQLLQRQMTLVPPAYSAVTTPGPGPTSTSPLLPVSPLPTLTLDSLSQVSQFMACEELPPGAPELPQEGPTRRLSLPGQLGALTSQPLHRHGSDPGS
As to `CN1CCN(CCCNC(=O)Cn2nc(-c3ccccc3)ccc2=O)CC1`, the “hERG current change (%, negative = inhibition) at 10uM” value was determined as 14.1%. Then `O=S(=O)(c1ccc(Br)cc1)N1CCCN(Cc2ccccc2F)CC1`, with -21.4%. Under `CCc1cc(=O)oc2cc(OCC(=O)N(CC)CC)c(Cl)cc12` stands 8.27%; under `C[C@@H](C(=O)Nc1nc2ccc(F)cc2s1)N1C(=O)C2CC=CCC2C1=O` (stereo partly shown), -13.9%.

As to `Cc1cc(NCCCn2ccnc2)n2ncc(-c3ccc(Cl)cc3)c2n1`, the “hERG current change (%, negative = inhibition) at 10uM” value is given as -68%. Under `COc1cc(C(=O)O)cc(OC)c1OCc1cc(C(=O)O)oc1C` stands 10.2%. With `CCCCn1c(N)c(N(Cc2ccccc2OC)C(=O)COc2ccccc2C#N)c(=O)[nH]c1=O`, the “hERG current change (%, negative = inhibition) at 10uM” value came out at 6.53%.

Take `O=S(=O)(c1ccc2nnn(O)c2c1)N1CCCCC1`: the “hERG current change (%, negative = inhibition) at 10uM” value is listed as 3.44%. Turning to `CC(=O)N(CN1C(=O)c2ccccc2C1=O)c1cccc(C)c1`, the “hERG current change (%, negative = inhibition) at 10uM” value is 4.43%. Under `Cc1nc2c(-c3ccc(F)cc3)c(C)nn2c(C)c1CCC(=O)N1CCC(Cc2ccccc2)CC1` stands -21.2%; under `O=S(=O)(c1ccccc1F)N1CCc2ccccc2C1`, 14.5%. For `O=C(/C=N/NC(=O)c1ccccc1Br)c1ccccc1`, the “hERG current change (%, negative = inhibition) at 10uM” value is reported as 5.03%. Then `COc1ccc(NC(=O)c2ccc(-c3nn(C)c(=O)c4ccccc34)cc2)cc1`, with -0.298%; and `COc1ccc(NC(=O)CS(=O)CC(=O)Nc2ccc(NC(C)=O)cc2)cc1` (stereo not shown), with 0.473%; and `CC(=O)N1CCC(N2CCN(c3ccccc3F)CC2)CC1`, with 0.444%. Under `Cc1ccc(-n2c(SCC(=O)NCc3ccco3)nc3sc(C)c(C)c3c2=O)cc1` stands 5.77%; under `CCc1ccc(/C=N/n2c(C)cc(C)c(C#N)c2=O)cc1`, 11.8%; under `COC(=O)c1cc(NC(=O)CN(C)Cc2ccccc2)cc(C(=O)OC)c1`, 5.95%. Then `CC1CC(C)CN(C(=O)CNC(=O)Cn2ccc3ccccc3c2=O)C1` (stereo not shown), with 0.125%; and `O=C(Nc1ccc(Nc2ccccc2)cc1)C(Cl)Cl`, with -24.1%. Consider `CC(C)COc1ccc(C(=O)OCCN2CCOCC2)c(O)c1.Cl`, for which the “hERG current change (%, negative = inhibition) at 10uM” value is listed as -25.2%. Then `COCCCNC(=O)c1cc(C)nn1-c1ccccc1`, with 7.55%; and `O=S(=O)(NC1CCN(Cc2ccccc2)CC1)c1cccc(S(=O)(=O)N2CCOCC2)c1`, with -43.4%. As to `COc1ccc(CCNC(=O)COc2cccc3c2OC(C)(C)C3)cc1OC`, the “hERG current change (%, negative = inhibition) at 10uM” value stood at 1.83%.

As for `COC(=O)Oc1cncc(C(=O)O)c1`, the “hERG current change (%, negative = inhibition) at 10uM” value was 15.2%. For `COc1ccc2c(c1)CCc1sc(NC(=O)c3ccco3)nc1-2`, the “hERG current change (%, negative = inhibition) at 10uM” value stood at 5.53%. For the compound `O=C(CSc1nnc(CCc2ccccc2)n1-c1ccc(Cl)cc1)NCc1ccccc1`, the “hERG current change (%, negative = inhibition) at 10uM” value was -18.4%. In the case of `C=CCNC(=O)c1ccccc1CCc1ccccc1`, the “hERG current change (%, negative = inhibition) at 10uM” value was found to be 4.52%. Under `O=C(CSc1nnc(Cc2ccccc2)o1)N1CCCc2ccccc21` stands -3.73%; under `CC(C)COc1ccc(C(=O)Nc2ncn[nH]2)cc1`, 16%. Then `C=C(C(=O)c1ccccc1)C(CC(=O)c1ccccc1)c1ccccc1` (stereo not shown), with 12.6%; and `COc1ccc(S(=O)(=O)NCc2ccc(C(=O)NCCCN3CCCC(C)C3)cc2)cc1` (stereo not shown), with -2.65%; and `O=C1Cc2ccccc2C(=O)N1c1cccc(Cl)c1`, with 16.1%. Under `CCCCOc1ccc(C(=O)NCCc2cccs2)cc1` stands 3.76%; under `O=C(CSc1ccccc1F)OCC(=O)N1CCN(C(=O)c2ccco2)CC1`, -27.2%. Take `COc1cccc(/C=C/C(=O)OCC(=O)c2c(N)n(C)c(=O)n(C)c2=O)c1`: the “hERG current change (%, negative = inhibition) at 10uM” value came out at 18.7%. Under `CC(C(=O)O)N1C(=O)CSc2ncccc21` (stereo not shown) stands 6.44%. Then `CC(C)CCCC(C)NS(=O)(=O)Cc1ccccc1` (stereo not shown), with -9.59%. Then `CCOc1ccc(C(=O)NC2=NCCS2)cc1`, with -4.04%; and `COc1ccc(C2C(C(C)=O)=C(C)Nc3ncnn32)cc1OC` (stereo not shown), with -2.53%; and `Nc1ccc2nc(SCC(=O)N3CCOCC3)sc2c1`, with 17%. For `Cc1ccc(/C=C(\NC(=O)c2ccccc2)C(=O)NCCN2CCOCC2)o1`, the “hERG current change (%, negative = inhibition) at 10uM” value is listed as -3.91%. As to `COC(=O)c1sc(OC)cc1OCc1ccc(C)cc1`, the “hERG current change (%, negative = inhibition) at 10uM” value is recorded as 4.43%. Then `O=C(CNS(=O)(=O)c1ccc(F)c(Cl)c1)N1CCCC1`, with 0.688%; and `COc1ccc(C(=O)NNC(=O)c2ccncc2)cc1`, with -8.32%.

As to `CCCNC(=O)CC(NS(=O)(=O)c1ccc(OC)cc1)c1ccco1` (stereo not shown), the “hERG current change (%, negative = inhibition) at 10uM” value is 6.28%.

(Values after paper PMC4336329 (PLoS ONE, 2015).)
